According to PubChem BioAssay AID1030 (National Center for Advancing Translational Sciences (NCATS), 2008):
In all, about 220,000 compounds went through this assay and about 16,000 (7.3%) were called active. This list was built around the results that the source calls inconclusive (neither active nor inactive); the mix of calls is not that of the screen. Calls follow the shape of the dose curve; as a rule, active = well fitted inhibition curve with a large enough effect (not every such curve was filed as active); inconclusive = small, poorly fitted or top-dose-only effect, or another doubt; inactive = no such curve, though single readings can be large or run the other way. Where the call is inconclusive, the potency comes from a doubtful curve fit.

Target: Aldehyde dehydrogenase 1A1 (Homo sapiens) (UniProt P00352)
Chain of UniProt P00352 (P00352 whole entry, looked up): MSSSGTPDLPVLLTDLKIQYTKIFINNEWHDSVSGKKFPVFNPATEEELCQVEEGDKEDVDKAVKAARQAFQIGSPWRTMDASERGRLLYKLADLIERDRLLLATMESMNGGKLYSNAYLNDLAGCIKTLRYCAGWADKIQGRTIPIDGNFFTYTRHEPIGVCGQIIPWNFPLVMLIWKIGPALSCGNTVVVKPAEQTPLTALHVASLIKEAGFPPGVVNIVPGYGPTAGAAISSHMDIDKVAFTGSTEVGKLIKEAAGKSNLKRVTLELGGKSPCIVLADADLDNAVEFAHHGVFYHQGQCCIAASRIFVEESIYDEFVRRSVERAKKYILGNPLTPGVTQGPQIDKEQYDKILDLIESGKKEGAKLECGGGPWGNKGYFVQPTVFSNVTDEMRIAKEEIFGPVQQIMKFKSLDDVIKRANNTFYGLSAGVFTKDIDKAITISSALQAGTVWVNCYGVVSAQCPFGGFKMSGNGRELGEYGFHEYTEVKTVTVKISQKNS
Assay: qHTS Assay for Inhibitors of Aldehyde Dehydrogenase 1 (ALDH1A1);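 as to activity, negative = inhibition: plate controls were no enzyme wells and a reference inhibitor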
Conditions: Purified ALDH1A1, NADH fluorescence, propionaldehyde substrate; series mostly up to 75.3 µM
Potency is read from the fitted curve at half-maximal effect; tags tell the direction and shape of the fitted curve.

Potency, active:
COc1ccc(NCC(=O)N/N=C/c2c(C)nn(Cc3ccccc3)c2Cl)cc1 15.8 µM
C#CCN1C(=O)C(O)(CC(=O)c2ccc3c(c2)OCCO3)c2ccccc21 (stereo not drawn) 1 µM
CCOC(=O)c1ccc(N=c2sc(C(=O)OC)cc(=O)n2Cc2ccco2)cc1 1.41 µM
Cc1cccc(OCc2n[nH]c(=S)o2)c1C 17.8 µM
Cc1nc(-c2ccc3c(c2)OCCCO3)cs1 25.1 µM

Potency, inactive:
O=c1c2ccccc2nc(-c2ccc(Cl)c(Cl)c2)n1O
COC1(C2=NCCN2)COc2ccccc2O1 (stereo not drawn)
COC(=O)[C@@H](NC(=O)O[C@@H]1C(=O)c2cc(OC)ccc2O[C@H]1c1ccc(OC)c(Br)c1)C(C)C
O=C(O)CCCCCN1C(=O)/C(=C/c2ccncc2)SC1=S
O=[N+]([O-])c1ccc(NCCCNS(=O)(=O)c2ccc(Cl)cc2)c(Cl)c1
CCCCN(CC)Cc1ccc(CNC(=S)Nc2c(C)cc(C)cc2C)o1
CC(=O)c1c(C)n([O-])c2ccc(C)cc2[n+]1=O
Cc1ccc(NC(=O)CSc2ncn(-c3ccccc3)n2)cc1C
COc1ccccc1NC(=O)Nc1ccccc1Br
COc1ccc(Br)cc1-c1noc(-c2ccccc2)n1
Cc1cc(-n2c(C)cc(C(=O)CSc3ncnc4ccccc34)c2C)no1
COC(=O)c1ccc(C)c(NC(=O)CCSc2ccc(C)cc2)c1
CCOC(=O)c1ccc(OS(=O)(=O)c2ccccc2)c(OC)c1
O=C(CCc1ccc(CCC(=O)c2cccs2)s1)c1cccs1
CN(C)S(=O)(=O)Oc1ccccc1C(=O)Nc1ccccc1Cl
Cc1cccc(N2CCN(Cc3cc(=O)n4ccsc4n3)CC2)c1C
COc1ccc(C2=NOC(C(=O)NCc3ccccn3)C2)cc1 (stereo not drawn)
Cc1ncc(N=Nc2ccccc2Cl)c(-c2ccccc2)n1
Cc1ccc(NC(=O)C(=O)NC(C)C2COc3ccccc3O2)cc1 (stereo not drawn)
S=c1[nH]nc(Cn2nnc3ccccc32)n1-c1ccccc1

Potency, inconclusive:
CC1=CC=CC2=NC(=O)CC(C)(C(=O)N(CC(=O)NC3CCCC3)c3ccccc3C)N12 (stereo not drawn) 31.6 µM [inhibitor, partial curve]
O=C(CSc1nnnn1C1CCCC1)NCc1ccccc1 17.8 µM [inhibitor, partial curve]
Clc1ccccc1CN1CCN(/N=C/c2ccncc2)CC1 8.91 µM [inhibitor, single point]
O=C(CN(C(=O)CCC(=O)Nc1nccs1)c1ccc(F)c(Cl)c1)NCc1ccco1 39.8 µM [inhibitor, single point]
COCCNCC(=O)Nc1ccccc1Sc1ccccc1 25.1 µM [inhibitor, partial curve, poor fit]
CC(=O)N1CCN(CC(=O)Nc2c(Cl)ccc(C)c2Cl)CC1 8.91 µM [inhibitor, partial curve]
CSc1nc2sc3c(c2c2nnnn12)CCCC3 12.6 µM [inhibitor, partial curve]
CCN(Cc1ccccc1)C(=O)c1nn(-c2ccc(OC)cc2)c(=O)c2c1c1ccccc1n2C 25.1 µM [inhibitor, partial curve]
CC(NC(=O)CCSc1nc(-c2ccc3c(c2)OCO3)cc(C(F)(F)F)n1)c1ccccc1 (stereo not drawn) 35.5 µM [inhibitor, partial curve]
c1ccc(-n2cnc3cc(NCc4ccccn4)ccc32)cc1 37.7 µM [inhibitor, single point]
C[n+]1c(/C=C/c2ccc3c(c2)OCO3)ccc2ccccc21 25.1 µM [inhibitor, single point]
Cc1ccc(CC(=O)N2CCN(C(=O)c3ccco3)CC2)cc1 25.1 µM [inhibitor, single point]
CC(=O)N1CCN(c2ccc(NCc3ccc4c(c3)OCO4)cc2)CC1 31.6 µM [inhibitor, single point]
COC(=O)c1c(N=CN(C)C)c(C#N)c2n1CCCC2 28.2 µM [inhibitor, partial curve, poor fit]
CC1(C)Oc2ccc3ccc(=O)oc3c2-c2cnoc21 37.7 µM [inhibitor, single point]
O=C(O)c1ccc2cccnc2c1O 39.8 µM [inhibitor, single point]
NC(=O)c1ccc(NC(=O)COC(=O)c2c3c(nc4ccccc24)/C(=C\c2cccs2)CCC3)cc1 39.8 µM [inhibitor, single point]
N/C(=N\OS(=O)(=O)c1ccc2ccccc2c1)c1ccccn1 23.8 µM [inhibitor, partial curve]
CSc1nnc(-c2ccccc2N=Cc2c(C)[nH]n(-c3ccc4ccccc4c3)c2=O)c(=O)[nH]1 11.2 µM [inhibitor, partial curve]
COCCNc1oc(-c2cccs2)nc1S(=O)(=O)c1ccc(C)cc1 31.6 µM [inhibitor, partial curve]
CCN1CCN(C(=O)c2cc(S(=O)(=O)Nc3ccc(S(C)(=O)=O)cc3)ccc2Cl)CC1 39.8 µM [inhibitor, single point]
COc1ccc(Cl)cc1-c1n[nH]c(=S)o1 12.6 µM [inhibitor, partial curve]
O=C(N/C=C/c1ccco1)OCc1ccccc1 28.2 µM [inhibitor, single point]
O=C(CSc1ncccc1-c1nc2ccccc2[nH]1)N1CCCCC1 31.6 µM [inhibitor, partial curve]
Cn1c(=O)c(=O)n(C)c2cc(S(=O)(=O)NCCOc3ccccc3Cl)ccc21 25.1 µM [inhibitor, single point]
CCCC(=O)Nc1nc(C)c(C(C)=O)s1 10 µM [inhibitor, partial curve]
CC(=O)N1C(=O)c2cccc3cccc(c23)C(=O)N1C(C)=O 39.8 µM [inhibitor, single point]
O=C(CSc1nnc(-c2cccs2)n1-c1ccccc1)N1CCOCC1 6.31 µM [inhibitor, single point]
CCN1CCN(C(=O)c2cnn3c(C(F)F)cc(-c4ccc(C)cc4)nc23)CC1 28.2 µM [inhibitor, partial curve]
c1cncc(-c2nnc(-c3cccs3)o2)c1 28.2 µM [inhibitor, partial curve]
COc1nc(C)nc2c1sc1nc3c(cc12)COC(C)(C)C3 18.9 µM [inhibitor, partial curve]
CCOC(=O)c1c(C)[nH]c(C(=O)COC(=O)c2oc3ccc(OC)cc3c2C)c1C 39.8 µM [inhibitor, single point]
O=S1(=O)CC/C(=N\Nc2ccc(F)cc2)c2ccsc21 39.8 µM [inhibitor, single point]
Cc1noc2ncnc(Sc3ccc(Cl)cc3)c12 28.2 µM [inhibitor, single point]
CCOC(=O)c1sc2nc(C)nc(SCC(=O)N(C)C3CCS(=O)(=O)C3)c2c1C (stereo not drawn) 31.6 µM [inhibitor, single point]
Cc1ccc(NC(=O)CCn2ccc([N+](=O)[O-])n2)nc1 3.16 µM [inhibitor, single point]
CC(=O)c1sc(Nc2nc3cc4c(cc3s2)OCO4)nc1C 39.8 µM [inhibitor, single point]
N#CC1=C(N)Oc2cc(O)ccc2C1C1CCCCC1 (stereo not drawn) 25.1 µM [inhibitor, partial curve]
Cc1[nH]c2ccc(F)cc2c1CCNC(=O)C1CCCCC1C(=O)OCC(F)(F)F (stereo not drawn) 14.1 µM [inhibitor, partial curve]
Cc1cccc(NC(=S)NN(Cc2ccccc2)c2ccccc2)c1C 17.8 µM [inhibitor, partial curve, poor fit]
CCN1CCN(c2nc(C)nc3c2sc(=S)n3C)CC1 8.91 µM [inhibitor, full curve, poor fit]
CCOC(=O)CSc1nc2sc3c(c2c(=O)[nH]1)CC(C)(C)OC3 39.8 µM [inhibitor, single point]
CC(C)C1C2=C(CC(C)(C)CC2=O)ON1c1ccccc1 (stereo not drawn) 22.4 µM [inhibitor, partial curve]
Cc1ccc(-c2cc(C(=O)NCc3ccco3)c3ccccc3n2)s1 31.6 µM [inhibitor, partial curve]
CCC(C)C(=O)Nc1nnc(-c2cccs2)s1 (stereo not drawn) 28.2 µM [inhibitor, partial curve]
CCOC(=O)c1cc(CC)sc1NC(=O)c1cc([N+](=O)[O-])ccc1N1CCOCC1 31.6 µM [inhibitor, single point]
CC(C)N(CC#CCC(O)(c1ccccc1)c1ccccc1)CCO 15 µM [inhibitor, partial curve]

activity, negative = inhibition, inactive:
COc1cc(C2SCCCCCCCCCCSC(c3ccc(O)c(OC)c3)SCCCCCCCCCCS2)ccc1O (stereo not drawn) 7.86% [at 13.5 µM]
